PubChem BioAssay AID588855 (National Center for Advancing Translational Sciences (NCATS), 2011)
The campaign covered roughly 410,000 compounds. About 5,000 (1.2%) were called active. The inconclusive results got no clear call from the source; some entries with a clear call stand among them for comparison. Calls follow the shape of the dose curve; as a rule, active = well fitted inhibition curve with a large enough effect; inconclusive = small, poorly fitted or top-dose-only effect; inactive = no such curve, though single readings can be large or run the other way. Potencies of inconclusive entries are doubtful fits and often do not repeat.
Potency is read from the fitted curve at half-maximal effect; tags tell the direction and shape of the fitted curve.

Assay: qHTS for Inhibitors of TGF-b; also: nearly all actives have a fitted effect of over 65% in size
Settings: HepG2 CAGA-GFP TGF-b/SMAD3 reporter, GFP fluorescence, 18 h, TGF-beta stimulated, 500 pg/mL final; series mostly up to 46.1 µM
Outline: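 HEPG2 CAGA-GFP cells (1000/well, DMEM with 1% FBS) were pre-incubated 2 h at 37 degrees C, given compound by pin tool, then stimulated with TGF-beta at 500 pg/mL final for 18 h before per-cell GFP fluorescence imaging.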
For `COc1ccc(C(O)(CC(C)C)C(CN2CCOCC2)c2ccccc2)cc1` (stereo unspecified), the Potency was inconclusive: 22.4 µM [inhibitor, single point].
For `O=C(Nc1cccc([N+](=O)[O-])c1)NN1CCCCCC1`, the Potency was inconclusive: 14.1 µM [inhibitor, single point].
With `Cc1cc(C)c(NC(=O)Cn2c(=O)n(-c3cccc(C(F)(F)F)c3)c(=O)c3c(C)c(C)sc32)c(C)c1` the Potency was “inactive”.
With `O=C(Nc1nnc(C2CC2)s1)C1Cc2ccccc2CN1S(=O)(=O)c1cccs1` (stereo unspecified) the Potency was inconclusive: 35.5 µM [inhibitor, single point].
With `CC(On1nnc2ccccc21)C(=O)N1CCN(Cc2ccccc2)CC1` (stereo unspecified) the Potency was “inactive”.
With `CCCCc1c(O)nc(SCC(=O)Nc2ccc3c(c2)CCC3)[nH]c1=O` the Potency was inconclusive: 5.62 µM [inhibitor, single point].
In the case of `COC(=O)c1cc([N+](=O)[O-])ccc1N1CCN(Cc2ccccc2)CC1`, the Potency is reported as inconclusive: 6.31 µM [inhibitor, single point].
In the case of `CC(=O)N1CCOc2cc(S(=O)(=O)NCc3ccccc3Cl)c(C)cc21`, the Potency is reported as inconclusive: 10 µM [inhibitor, single point].
With `O=C(CNc1cccc(C(F)(F)F)c1)Nc1cccc(S(=O)(=O)N2CCCC2)c1` the Potency was inconclusive: 22.4 µM [inhibitor, single point].
In the case of `CC1(C(=O)Nc2ccc3c(c2)OCO3)CCN1Cc1csc2ccccc12` (stereo unspecified), the Potency is reported as inconclusive: 17.8 µM [inhibitor, partial curve, poor fit].
For `COc1ccccc1CNc1nc2cc(-c3ccsc3)sc2c(=O)n1C`, the Potency was inconclusive: 12.6 µM [inhibitor, partial curve, poor fit].
In the case of `Oc1ccc(Br)cc1-c1ccnn1-c1ccccc1`, the Potency is reported as inconclusive: 15.8 µM [inhibitor, partial curve, poor fit].
In the case of `COc1ccc(NC(=O)CSc2ccc(-c3cccnc3)nn2)c(OC)c1`, the Potency is reported as inconclusive: 1.26 µM [inhibitor, full curve, poor fit].
For `CC(C)Cc1ccc(CN2CCC(n3nccc3NC(=O)C3CCCC3)CC2)cc1`, the Potency was inconclusive: 11.2 µM [inhibitor, partial curve, poor fit].
With `COc1cccc(/C=C/C(=O)c2ccc(NS(=O)(=O)c3ccc(C)cc3)cc2)c1` the Potency was inconclusive: 35.5 µM [inhibitor, single point].
With `Cc1cc2oc3cc(NCCC4CCCN4C)ccc3c(=O)c2cc1C` (stereo unspecified) the Potency was inconclusive: 35.5 µM [inhibitor, single point].
With `CCN(CC)c1nc2cc(C)ccc2cc1/C=C(\C#N)C(N)=O` the Potency was inconclusive: 35.5 µM [inhibitor, single point].
In the case of `COc1ccc(C)cc1Nc1n[n+](-c2ccccc2)c(-c2c(OC)ccc3ccccc23)s1`, the Potency is reported as inconclusive: 22.4 µM [inhibitor, single point].
For `CCOc1cccc(NC(=O)C2CC(=O)N(C)C(=Nc3cccc(OC)c3)S2)c1` (stereo unspecified), the Potency was inconclusive: 11.2 µM [inhibitor, partial curve, poor fit].
In the case of `CCc1cc(C(=O)NC2CCCc3c2cnn3-c2cccc(C)c2C)n(C)n1` (stereo unspecified), the Potency is reported as “inactive”.
For `C=CCOc1cccc(/C=C/c2nc3ccccc3c(=O)[nH]2)c1`, the Potency was inconclusive: 25.1 µM [inhibitor, single point].
For `CCOC(=O)Cn1c(C(=O)OCC)cc2sccc21`, the Potency was inconclusive: 3.55 µM [inhibitor, full curve].
For `Cc1ccccc1OCCn1cc(C(=O)O)c2ccccc21`, the Potency was “inactive”.
In the case of `COc1ccc(-n2nc3c(N4CCC(C(=O)NCc5ccco5)CC4)nnc(C)c3c2C)cc1`, the Potency is reported as inconclusive: 8.91 µM [inhibitor, single point].
For `CCOCCCNC(=O)c1ccc2c(c1)NC(=O)C(CS(=O)(=O)Cc1ccc(F)cc1Cl)N2` (stereo unspecified), the Potency was “inactive”.
For `CCN(CC)CCN(CC)c1ccc(/C=C/c2ccnc3ccccc23)cc1`, the Potency was inconclusive: 35.5 µM [inhibitor, single point].
For `CC1=C(C(=O)OCc2ccc3c(c2)OCO3)C(c2ccc(Cl)cc2)NC(=O)N1` (stereo unspecified), the Potency was inconclusive: 20 µM [inhibitor, single point].
For `COCOc1ccc(-c2ncc(OCCN3CCCC3=O)nc2NC(=O)c2cc3ccccc3s2)cc1`, the Potency was “inactive”.
With `COc1cccc(C(=O)Nc2nnc(S(=O)(=O)N(C)Cc3ccc(F)cc3)s2)c1` the Potency was inconclusive: 20 µM [inhibitor, single point].
With `COc1ccc(N(CC(=O)Nc2cccc(C)c2C)S(=O)(=O)c2c(C)n[nH]c2C)cc1` the Potency was “inactive”.
In the case of `O=C(c1ccccc1)c1ccc(OCCOCCN2CCN(Cc3ccccc3)CC2)cc1`, the Potency is reported as inconclusive: 17.8 µM [inhibitor, single point].
For `Cc1ccc(S(=O)(=O)N2[C@@H](c3ccc(Cl)cc3)C(C(=O)O)=CC[C@H]2c2ccc(C(C)C)cc2)cc1`, the Potency was inconclusive: 22.4 µM [inhibitor, partial curve, poor fit].
In the case of `COc1ccc(C(=O)Nc2ccccc2N2CCOCC2)cc1Br`, the Potency is reported as “inactive”.
For `COCCNC(=O)C(c1ccc(O)cc1)N(Cc1cccs1)C(=O)CCC(=O)Nc1ccccn1` (stereo unspecified), the Potency was “inactive”.
With `O=P(CCCCCCCCCP(=O)(c1ccccc1)c1ccccc1)(c1ccccc1)c1ccccc1` the Potency was inconclusive: 14.1 µM [inhibitor, partial curve, poor fit].
With `Cc1ccc(CN2CCC[C@]3(N[C@H](c4ccc(C)cc4)[C@@H]4C(=O)N(Cc5ccccc5)C(=O)[C@@H]43)C2=O)cc1` the Potency was “inactive”.
With `Cc1nc2ccc(Oc3ccccc3)cc2s1` the Potency was inconclusive: 12.6 µM [inhibitor, partial curve, poor fit].
For `O=C(CC(Nc1ccccc1)c1ccc(F)cc1)c1ccccc1` (stereo unspecified), the Potency was inconclusive: 35.5 µM [inhibitor, single point].
With `CCCCCC(=O)N1CC2(CC(c3cccc(NC(=O)COc4ccc(Cl)cc4)c3)=NO2)C[C@@H]1C(N)=O` (stereo partly specified) the Potency was inconclusive: 15.8 µM [inhibitor, single point].
With `CN(C)c1ccc(Nc2cc(Cl)ncn2)cc1` the Potency was “inactive”.
For `CCOc1ccc(NC(=O)CCCc2nc(-c3cccc(OC)c3)no2)cc1`, the Potency was inconclusive: 12.6 µM [inhibitor, partial curve, poor fit].
